The source of these data is the RNAGym collection of RNA variant scans (doi:10.1093/nar/gkz1192).

B1: CPEB3 Ribozyme (parent)
chain: UAACAGGGGGCCACAGCAGAAGCGUUCACGUCGCAGCCCCUGUCAGAUUCUGGUGAAUCUGCGAAUUCUGCUGUAUAUCUC

Read counts are not given, so values of variants with three or more changes are uncertain.

Variants of B1 are the subject of the series. The series is described as follows: self-cleavage, relative activity (ratio to wild type); higher = more cleavage; in vitro, sequencing. In outline:
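Barcoded CPEB3 ribozyme mutants, produced by rounds of error-prone PCR, self-cleaved while being transcribed with T7 RNA polymerase for 5 hours at 37°C and during a subsequent 15 min DNase I step before EDTA was added. Sequencing of template-switched cDNA on Illumina gave cleaved and total reads, and DNA sequencing assigned barcodes to variants. Each variant's relative activity is its cleaved/total read fraction divided by the unmutated ribozyme's fraction, averaged across three batches. A variant needed a minimum of 5 reads.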
With UAACAAGGGGCCACAGCAGAAGCGAUCACGUCGCAGCCCCUGUCAGAUUCUGGUGAAUCUGCGUAUUCUGCUGUAUAUCUC [G6A U25A A64U], the self-cleavage came out at 0.11.
Under UAACAAGGGGCCACAGCAGAAGCGUUCACAACGCAGCCCCUGUCGGAUUCUGGUGAAUCUGCGAAUUCUGCUGUAUAUCUC [G6A G30A U31A A45G] stands 0.09; under UAACAUGGGGCCACAGCAGAAGCGUUCGCGUCGCAGCCCCUGUCAGAUUCUGGUGAAUCAGCGAAUUCUGCUGUAUACCCC [G6U A28G U60A U78C U80C], 0.07; under UAACAUGGGGCCUCAGCAGAAGCGUUCACGUCGCAGCCCCUGUCAGACUCUGGUGAAUCUGCGAAUUCUGCUGUAUAUCUC [G6U A13U U48C], 0.24.
As to UAACAUGGGGCCACAGCGGAAGCGUUCACGUCGCUGCCCCUGUCAGAUUCUGGUGAAUCUGCGAAUUCUGCCGUAUAUCUC [G6U A18G A35U U72C], the self-cleavage turned out to be 0.17.
Under UAACAUGGGGCCACAGCAGAAGCGUUCGCGUCGCAGCCCCUGUCAGAUUCUGGCGAAUCUGCGAAUUCUGCUGUAUAUCUC [G6U A28G U54C] stands 0.37; under UAACAUGGGGCCACAGCAGAGGCGUUCACGUCGCAACCCCUGUCAGAUUCUGGUGAAUCUGCGAAUUCUGCUGUAUAUCUC [G6U A21G G36A], 0.05.
Under UAACACGGGGCCACAGCAGAAGCGUUCACGUCGCAGCCCCUGUCAGAUUCAGGUGAAUCUGUGAAUUCUGCUGUAUAUCAC [G6C U51A C62U U80A] stands 0.13; under UAACAAGGGGCCACAGCAGAAGCGUUCACGUCGCAGCCCCUGUCAGAUUCUGGAGAAUCAGCGAAUUCUGCUGUAUAUCUC [G6A U54A U60A], 0.22; under UAACAUGGGGCCUCAGCAGAAGCGUUCACGUCGCAGCCCCUGUCAGAUUCUGAUGAAUCUGCGAAUUCUGCUGUAUACCUC [G6U A13U G53A U78C], 0.13.
Under UAACAUGGGGCCACAGCAGAGGCGUUCACGUCGCAGCCCCCGUCAGAUUCUGGUGAAUCUGCGAAUUCUGCUGUAUAUCUC [G6U A21G U41C] stands 0.1; under UAACAAGGGGCCACAGCAGAAGCGUUCACGACGCGGCCCCUGUCAGAUUCUGGUGAGUCUGCGAAUUGUGCUGUAUAUCUC [G6A U31A A35G A57G C68G], 0.06; under UAACAAGGGGCCACAGCAGAAGCGUUCACGUCGCACCCCCUGUCAGAUUCUUGUGAAUCUGCGAUUUCUGCUGUAUAUCUC [G6A G36C G52U A65U], 0.17.
As for UAACACGGGGCCACAGCUGAAGCGUUCACGUCGCGGCCCCUGUCAGAUCCUGGUGGAUCUGCGAAUUCUGCUGUAUAUCUC [G6C A18U A35G U49C A56G], the self-cleavage amounted to 0.03.
As to UAACAUGGGGCCUCAGCAGAAGCGUUCACGUCGCGGCCCCUGUCAGAUUCUGGUGAAUCUGCGAAUUCUGCUGUGUAUCUC [G6U A13U A35G A75G], the self-cleavage amounted to 0.51.
Under UAACAUGGGGCCGCAGCAGAAGCGUUCACGUCGCAGCCCCUGUCAGAUUCUGGUGAAUCUGCGAAUUCUGCUGUUUAUCUC [G6U A13G A75U] stands 0.45; under UAACAAGGGGCCACAGCAGAAGCGUUCACGUCGCAGCCCCUGUCAGAUUCUGGUGAAUCUACGAAUCCUGCUGUAUAUCUC [G6A G61A U67C], 0.16.
The value for UAACAAGGGGCCACAGCAGAAGCGCUCACGUCGCAGCCCCUGUCAGAUACUGGUGAAUCUGCGAAUUCUGCUGUAUAUCUC [G6A U25C U49A] was 0.09; that for UAACAAGGGGCCACAGCAGAAGCGUUCACGACGCAGCCCCUGUCAGAUUCUGGUGAGUCUGCGAAUCCUGCUGUAUAUCUC [G6A U31A A57G U67C] was 0.09.
Take UAACAAGGGGCCACAGCAGAAGCGUUCACGUCGCAGCCCCCGUCAGAUUCUGGUGAAUCUGCGAAUUCUGCUGAAUAUCUA [G6A U41C U74A C81A]: the self-cleavage came out at 0.39.
The value for UAACAAGGGUCCACAGCAGAGGCGUUCACGUCGCAGCCCCUGUCAGAUUCUGGUGACUCUGCGAAUUCUGCUGUAUAUCUC [G6A G10U A21G A57C] was 0.05; that for UAACAAGGGGCCACAGCAGAAGCGUUCACGUCGCAGCCCCCGUCAGAUUCUGGUGAAUCCGCGAAUUCUGCUAUAUAUCUC [G6A U41C U60C G73A] was 0.08; that for UAACAAGGGGCCACAGCAGAAGCGUUCACGUCGCAGCCCCUGUCAGAUCCUGGGGAAACUGCGAAUUCUGCUGUAUAGCUC [G6A U49C U54G U58A U78G] was 0.04.
On to UAACAUGGGGCCACAGCAGGAGCGUUCACGUCGCUGCCCCUGUCGGAUUCUGGUGAAUCUGCGAAUUCAGCUGUAUAUCUC [G6U A20G A35U A45G U69A], for which the self-cleavage is 0.06.
For the variant UAACAAGGGGCCACAGCAGAAGCGUCCACGUCGCAGCCCCUGACAGAUUCUGGUGGAUCAGCGAGUUCUGCUGUAUAUCUC [G6A U26C U43A A56G U60A A65G], the self-cleavage came out at 0.08.
The value for UAACAAGGGGCCACAGCAGAAGCGCUCACGUCGCAGCCCCUGUCAGAUUCUGGUGAUUCUGCGAAUUCUGCUGUAUAUCUC [G6A U25C A57U] was 0.22.
The value for UAACACGGGGCCACAGCAGAAGCGUUCACGUCGCUGCCCCUGUCAGACUCUGGUGAAUCUGCGAAUUGUGCUGUAUAUCUC [G6C A35U U48C C68G] was 0.2.
In the case of UAACACGGGGCCACUGCAGAAGCGUUCACGUCGCAGCCCCUGUCAGAUUCUGGUGAAUCUGCGAAUUCUGCUGUAUAUCCC [G6C A15U U80C], the self-cleavage is 0.46.
The value for UAACAAGGGGCCACAGCAGAAGCGAUUACGUCGCAGCCCCUGUCAGUUUCUGGUGAAUCCGCGAAUUCUGCUGUAUAUCUC [G6A U25A C27U A47U U60C] was 0.14; that for UAACAAGGGGCCACAGCAGAAGCGUUCACGUCGCAGCCCCUGUCAGAUUCUGGCGAAUCUGCGAAUUCCGCCGUAUAUCUC [G6A U54C U69C U72C] was 0.05.
Consider UAACAAGGGGCCACAGCAGAAGCGUUCACGUCGCAGCCCCUGACAGAUUCUGGUGAAUCUGCGAAUUCUGCUGUAUACCUC [G6A U43A U78C], for which the self-cleavage amounted to 0.39.
For UAACACGGGGCCACAGCAGAAGCGUUCACGUCGCAGCCGCUGUCAGAUUCUGGUGAAUCUGCGAAUUCUGCCGUAUAUCUC [G6C C39G U72C], the self-cleavage stood at 0.1.
Under UAACAAGGGGCCACAGCAGAAGCGUUCACGUCGCAGCCCCUGUCAGAUUCUAGUGAAUCUGCAAAUUCUGCUGUAUGUCUC [G6A G52A G63A A77G] stands 0.39; under UAACACGGGGCCACAGCAGAAGCGUUCACGUCGCAGCCCCUGUCAGAUUCUGGUGAAUCUGCGAAUUCUGCGCUAUAACCC [G6C U72G G73C U78A U80C], 0.43.
